Test results from PubChem BioAssay AID463173 (ICCB-Longwood Screening Facility, Harvard Medical School, 2010).
The whole screen tested about 52,000 compounds, of which about 4,300 (8.3%) were called active. No stated cut-off is given here; in the data, active means survival mostly below about 52% (no sharp cut-off); inactive means mostly above about 56%. The list shows a part of the results.

The molecules below were run on DeltatarO mutant (assay: growth inhibition of S. aureus wild type versus tarO mutant, primary screen, teichoic acid synthesis inhibitors, RN4220, OD600 (AID 463173)). Conditions: OD600, 18 h, active compounds read low, screened at 18.75 µg/mL (by protocol).

Compound	survival
COc1ccc(CC(=O)NCC(c2cccs2)S(=O)(=O)c2ccc(F)cc2)cc1 (stereo not drawn)	inactive: 73%
Cc1ccc(CNC(=O)c2c(Nc3ccccc3C)sc(C(=O)c3ccc(F)cc3)c2N)cc1	active: 20%
O=C(CN1CCN(Cc2ccccc2F)C1=O)NCc1ccccc1	inactive: 120%
Cc1ccc(C(=O)N(Cc2ccco2)c2ccccn2)cc1	inactive: 58%
CCOc1ccccc1NC(=O)C1=C(C)Nc2ncnn2C1c1ccco1 (stereo not drawn)	inactive: 83%
COc1cc(NC(=O)c2nn(C)c3c2COc2ccccc2-3)cc(OC)c1OC	inactive: 66%
O=C(CCn1c(=O)c2ccccc2n(CC(=O)Nc2ccc(F)cc2)c1=O)NCCc1ccccc1	inactive: 85%
COc1ccc(CCNC(=O)c2ccc(Cn3c(SCc4ccccc4)nc4cccnc43)cc2)cc1	inactive: 92%
CC(C)c1cc(-c2nc(-c3ccc(Cl)cc3)no2)n[nH]1	inactive: 70%
Cc1cccn2c(=O)c(C(=O)N3CCN(c4ccccc4)CC3)cnc12	inactive: 49%
COc1cc(Nc2nc(-c3ccc(OC)c(OC)c3)nc3ccccc23)cc(OC)c1	active: -2%
Cc1ccc(C(=O)c2c(N)c(C(=O)Nc3cccc(C(F)(F)F)c3)c3ccccn23)cc1	inactive: 110%
Cc1ccc(-n2c(=O)c3oc4ccccc4c3n(Cc3cccc(F)c3)c2=O)cc1C	inactive: 60%
COc1ccccc1Nc1c2c(nc3ccc(NC(=O)c4ccc(N(C)C)cc4)cc13)CCCC2	inactive: 89%
Cc1nc2nc(NCc3ccc(Br)cc3)[nH]n2c(=O)c1Cc1ccccc1	active: 39%
CN(C)c1ccc(CNC(=O)c2ccc3nc(Cc4ccccc4)oc3c2)cc1	inactive: 98%
CSc1ccc(CCNC(=O)c2csc3c2CCCCC3)cc1	inactive: 63%
CC(C)CSc1n[nH]c(N)n1	inactive: 97%
O=C(O)CCn1ccc2cc(S(=O)(=O)N3CCCCCC3)ccc21	inactive: 80%
Cc1cc(C)c(NC(=O)C(=O)NCCc2csc(-c3ccc(F)cc3)n2)c(C)c1	inactive: 67%

Compound	survival
CCOC(=O)c1c(NC(C)=O)c2c3c(sc2n1Cc1cc(C)ccc1C)CCCC3	inactive: 98%
CCOc1ccccc1NC(=O)Cn1c(=O)n(Cc2ccco2)c(=O)c2sc3ccccc3c21	inactive: 66%
CCCCC(CC)CNC(=O)CCCCCn1c(=O)[nH]c2ccsc2c1=O (stereo not drawn)	inactive: 72%
O=C(c1ccc2c(c1)N(Cc1ccc(Cl)cc1)C(=O)c1ccccc1S2(=O)=O)N1CCOCC1	inactive: 96%
CCOc1ccc2[nH]c(=O)c(-c3nc4cccc(C)n4c3NCc3ccco3)cc2c1	inactive: 107%
CCCC(=O)Nc1ccc2oc(-c3ccc(O)c(Br)c3)nc2c1	inactive: 59%
CC(C)c1ccc(NC(=O)c2ccc(=O)n(Cc3ccccc3)c2)cc1	inactive: 89%
CCc1ccc(-n2c(=O)c3ccccc3n(Cc3ccccc3C#N)c2=O)cc1	inactive: 80%
COc1cccc(C2C(C(N)=O)=C(C)Nc3ncnn32)c1 (stereo not drawn)	inactive: 71%
O=C(O)Cn1ncc2ccccc2c1=O	inactive: 101%
Fc1ccc(N2CCN(c3ncnc4onc(-c5ccc(Cl)cc5)c34)CC2)cc1	inactive: 65%
COc1ccc(OC)c(NC(=O)C2=C(C)C(=O)OC23CCN(C(C)C)CC3)c1	active: 32%
O=C(CSc1nc2c(oc3ccccc32)c(=O)n1-c1ccccc1)Nc1ccc(F)c(Cl)c1	inactive: 86%
CC(C)(C)c1ccc(C(=O)Nc2nnc3n2CCS3)cc1	inactive: 80%
Cc1oc2c(C)c3oc(=O)c(CCC(=O)N4CCCCC4)c(C)c3cc2c1C	inactive: 89%
Cc1cc2oc(C(=O)Nc3ccc(S(=O)(=O)N(C)c4ccccc4)cc3)cc(=O)c2cc1C	inactive: 51%
COc1cc(-c2nnc(SCCOc3ccccc3)o2)cc(OC)c1OC	inactive: 76%
CCOC(=O)Cn1c(=O)oc2cc(S(=O)(=O)Nc3ccccc3F)ccc21	inactive: 67%
CCOC(=O)c1c(SCC(=O)Nc2cccc(C)c2C)nc(=O)[nH]c1C	inactive: 67%
CCn1c(C)c(C)c2cc(C(=O)NCCc3cc(OC)ccc3OC)ccc21	inactive: 98%

Compound	survival
Cc1oc2ncn(CC(C)C)c(=O)c2c1C(=O)NCCCN(C)Cc1ccccc1	inactive: 74%
O=C(Nc1cccc(C(F)(F)F)c1)C1CCCN(S(=O)(=O)c2cccc3nonc23)C1 (stereo not drawn)	inactive: 91%
CCOc1ccc(CNC(=O)c2ccc3c(c2)N(Cc2ccccc2)CCS3)cc1	inactive: 64%
NC(Cc1ccccc1)C(O)(c1ccccc1)c1ccccc1 (stereo not drawn)	inactive: 96%
COc1ccc2[nH]cc(NC(=O)N3CCN(C(=O)OC(C)(C)C)CC3)c(=O)c2c1	inactive: 96%
CCOc1ccc(S(=O)(=O)N2CCC(n3c(C)nc4cccnc43)CC2)cc1	inactive: 73%
O=C(Cn1ncc2c(Cl)cccc21)NCc1cccc(F)c1	inactive: 112%
COc1ccc(S(=O)(=O)N(CC(=O)Nc2ccc3c(c2)OCO3)c2ccccc2)cc1	inactive: 50%
COc1ccc(-c2noc(-c3ccc(NCCc4ccccc4)c([N+](=O)[O-])c3)n2)cc1	active: 42%
O=C(Cn1cc(S(=O)(=O)Cc2ccccc2Cl)c2ccccc21)Nc1ccc(F)cc1F	inactive: 86%
Cc1noc(C)c1C(=O)N(c1ccccc1)C(C(=O)NC1CCCC1)c1ccc(F)cc1 (stereo not drawn)	inactive: 86%
CCc1ccc(S(=O)(=O)c2cn(Cc3ccc(OC)cc3)c3cc(OC)c(OC)cc3c2=O)cc1	inactive: 73%
O=C(COc1ccc(Br)cc1)Nc1ccc(C(=O)OC2CCCCC2)cc1	inactive: 72%
COc1ccc(NC(=O)CCc2c(C)nc3cc(-c4cccc(F)c4)nn3c2C)cc1Cl	inactive: 129%
O=C(Nc1cccnc1)C(Cc1ccccc1)N1C(=O)c2ccccc2C1=O (stereo not drawn)	inactive: 78%
CCOc1ccc(NC(=O)Cn2c(=O)n(-c3ccccc3)c(=O)c3c4c(sc32)CCCC4)cc1	active: 90%
CCCCN(c1ccccc1)c1ncnc2c1cnn2-c1cccc(C)c1	inactive: 78%
CC(=O)Nc1ccc2nc(SCCOc3ccccc3Cl)sc2c1	active: 3%
